# Reference: PMC4336329 (PLoS ONE, 2015)
# The campaign covered roughly 310,000 compounds. About 14,000 (4.5%) showed an effect of 50% or more. Effects have a minus sign here. The list shows a part of the results.
# Target: human ether-à-go-go-related gene (hERG) potassium channel (human, UniProt Q12809)
# Experiment: primary screen, population patch clamp on CHO cells stably expressing hERG
# 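Also: peak tail current of the secondary pulse compared with the same well before compound.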
# Chain of human ether-à-go-go-related gene (hERG) potassium channel (Q12809 whole entry, looked up): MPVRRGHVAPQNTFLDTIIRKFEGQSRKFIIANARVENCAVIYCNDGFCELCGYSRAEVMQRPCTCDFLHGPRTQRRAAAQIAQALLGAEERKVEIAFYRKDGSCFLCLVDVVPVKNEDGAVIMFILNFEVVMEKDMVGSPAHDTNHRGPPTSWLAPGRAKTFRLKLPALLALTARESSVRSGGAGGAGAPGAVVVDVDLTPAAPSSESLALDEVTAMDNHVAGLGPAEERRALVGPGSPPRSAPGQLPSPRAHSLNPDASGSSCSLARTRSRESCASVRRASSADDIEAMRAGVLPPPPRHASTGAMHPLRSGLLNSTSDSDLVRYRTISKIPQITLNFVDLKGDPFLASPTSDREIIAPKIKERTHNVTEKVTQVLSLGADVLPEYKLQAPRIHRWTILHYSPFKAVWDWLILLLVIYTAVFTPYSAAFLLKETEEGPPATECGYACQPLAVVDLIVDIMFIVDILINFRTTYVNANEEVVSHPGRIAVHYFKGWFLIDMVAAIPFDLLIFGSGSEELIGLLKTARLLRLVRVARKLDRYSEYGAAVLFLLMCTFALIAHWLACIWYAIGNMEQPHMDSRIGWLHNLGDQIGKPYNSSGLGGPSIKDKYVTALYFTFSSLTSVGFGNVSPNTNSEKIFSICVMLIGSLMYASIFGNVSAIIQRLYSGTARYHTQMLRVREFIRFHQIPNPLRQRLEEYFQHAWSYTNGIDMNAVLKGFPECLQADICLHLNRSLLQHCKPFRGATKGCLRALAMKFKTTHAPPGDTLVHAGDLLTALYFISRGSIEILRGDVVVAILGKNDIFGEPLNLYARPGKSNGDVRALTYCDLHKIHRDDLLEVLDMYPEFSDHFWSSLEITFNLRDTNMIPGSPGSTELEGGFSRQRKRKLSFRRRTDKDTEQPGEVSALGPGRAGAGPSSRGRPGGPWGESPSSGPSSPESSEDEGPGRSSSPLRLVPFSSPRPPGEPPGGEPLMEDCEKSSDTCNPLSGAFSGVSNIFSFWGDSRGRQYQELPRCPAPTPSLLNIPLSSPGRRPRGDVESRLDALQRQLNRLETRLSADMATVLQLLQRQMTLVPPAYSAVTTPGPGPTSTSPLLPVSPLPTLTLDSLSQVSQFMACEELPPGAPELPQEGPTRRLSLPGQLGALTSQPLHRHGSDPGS
row,SMILES,"hERG current change (%, negative = inhibition) at 10uM"
1,CCC1(C)Cc2c(sc3nc(SC)n(Cc4ccccc4)c(=O)c23)CO1 (centres unmarked),6.63%
2,O=C(COc1ccc(Br)cc1Br)NC(=S)N1CCCc2ccccc21,-2.7%
3,Cc1ccc(S(=O)(=O)NCC(=O)N(CC(=O)NCC2CCCO2)c2cccc(F)c2)cc1 (centres unmarked),1.45%
4,O=C(CCN1CCOCC1)Nc1cccc(Br)c1,-3.24%
5,CCN(C1CCCCC1)S(=O)(=O)CCNC(=O)c1ccc2c(c1)OCO2,11.3%
6,O=C(Nc1cccc2c1CCCC2)c1ccccc1F,17.9%
7,COc1ncnc2c1oc1nc(CC(C)C)c3c(c12)CC(C)(C)OC3,-26.7%
8,COC(=O)c1[nH]c2ccccc2c1Sc1ccccc1,11.9%
9,CC(=O)Nc1ccc(NC(=O)c2ccc(C)c(S(=O)(=O)Nc3cccc(C)c3)c2)cc1,17.5%
10,COc1cccc(C(=O)N2CCn3c2nc2ccccc23)c1,-33.4%
11,O=C(NC(=S)Nc1ccccc1N1CCOCC1)c1ccccc1F,3.59%
12,CCOc1cc(C)c(S(=O)(=O)N2CCCCC2)cc1C,27%
13,CSc1ccc(CN2CCC(n3nccc3NC(=O)C3CCOC3)CC2)cc1 (centres unmarked),-67.8%
14,COc1cccc(-c2noc(C3CCCN(C(=O)c4ccc(F)cc4F)C3)n2)c1 (centres unmarked),-35.9%
15,COc1cc(C(CCN2CCCCC2)c2c(OC)cc(OC)c3c(-c4ccccc4)cc(=O)oc23)cc(OC)c1OC (centres unmarked),-67%
16,Cn1c(SCC(=O)NC2CC2)nnc1-c1ccccc1,4.67%
17,O=C(NCc1cccc(F)c1)C1CCN(C(=O)c2sccc2-n2cccc2)CC1,-18%
18,O=C(NCCN1CCOCC1)c1cccn2c(=O)c3c4c(sc3nc12)CCCC4,-25.5%
19,CC(=O)c1c(C)[nH]c(C(=O)N(CCc2ccccc2)Cc2ccccc2)c1C,-18.1%
20,CC(=O)Nc1ccc(S(=O)(=O)N(C)C2CCN(C)CC2)cc1,18.1%
21,CN1CC(C(=O)Nc2ccc(F)c(Cl)c2)CC1=O (centres unmarked),12.1%
22,OC1(c2cccs2)CN(c2ccc(Br)cc2)C2=[N+]1CCCS2.[Br-] (centres unmarked),-72.1%

row,SMILES,"hERG current change (%, negative = inhibition) at 10uM"
1,COC(=O)c1ccc(OC(=O)/C=C/c2ccco2)cc1,14.6%
2,Cc1ccc(-c2nc(SCC(=O)NCC3CCCO3)c(-c3ccccc3)[nH]2)cc1 (centres unmarked),7%
3,O=C1c2oc3ccccc3c(=O)c2C(c2cccnc2)N1Cc1ccco1 (centres unmarked),-13.5%
4,O=C(CN1CCN(c2ccccc2)CC1)N1CCN(c2ccccc2)CC1,-41.5%
5,O=C(COc1ccccc1-c1ccccc1)NN=C1CCCC1,-6.03%
6,O=C(CSCc1c(Cl)cccc1Cl)Nc1nccs1,-19%
7,Cc1onc(-c2ccc(Cl)cc2)c1-c1ccnn1S(=O)(=O)c1cccc(C(F)(F)F)c1,-8.84%
8,OCCN1CCN(c2ncnc3c2sc2nc(N4CCOCC4)c4c(c23)CCC4)CC1,-22.1%
9,CCCCOCCCNC(=O)/C=C/c1ccccc1Cl,-11.7%
10,Cn1c(Cn2c(=O)sc3ccccc32)nnc1SCC(=O)NCc1ccco1,-12.6%
11,Cn1c(=O)[nH]c(=O)c2c1nc(NCCc1ccccc1)n2CC(O)COc1ccccc1 (centres unmarked),5.02%
12,NC(=O)NC(c1ccccc1)c1ccccc1,-15.6%
13,CN(C)c1ccc(/C=N\NC(=O)CC#N)cc1,13.3%
14,COc1cccc(/C=N/NC(=O)CNC(=O)c2cccs2)c1O,9.92%
15,NC(=O)C1(NC(=O)[C@@H]2CC3(CC(c4cccc(NC(=O)c5cc([N+](=O)[O-])cc([N+](=O)[O-])c5)c4)=NO3)CN2C(=O)c2ccccc2)CC1 (some centres unmarked),10.6%
16,Br.CCc1nnc2n1N=C(c1ccccc1)CS2,11.5%
17,CCOC(=O)C1CCN(C(=O)c2ccc(CNS(=O)(=O)c3ccc(C)cc3)cc2)CC1,-31.4%
18,O=c1c2ccccc2nc(SCc2cccc(F)c2)n1-c1cccc(S(=O)(=O)N2CCCC2)c1,6.92%
19,CC(C)(C)c1ccc(C(=O)Nc2nnc(SCC(=O)NCC3CCCO3)s2)cc1 (centres unmarked),16.6%
20,O=[N+]([O-])c1cccc(CP(=O)(c2ccccc2)c2ccccc2)c1,4.45%
21,C/C(=N/NC(=O)CNC(=O)c1ccncc1)c1ccco1,-2.36%
22,Cc1nn(C)c(C)c1CN(C)C(=O)C1(C)CC1(Br)Br (centres unmarked),3.92%
